Experimental data as given in the supplement of paper PMC10126150.
Values marked as one replicate rest on one cluster of the flow cell; about a third of the high ones do not repeat.

tested on: ATP; experiment: switch fluorescence ratio, 500 uM ATP over buffer (Cy3 cluster intensity, sum of 5 cycles each) (fold (ratio)); higher = stronger signal-on switching upon ATP binding; sequences stand for … in TCGTCGGCAGCGTCAGATGTGTATAAGAGACAGTTTTTTTTTTTTTTTTTTTTTTTTT…TC; settings: aptamer strand: ATP DNA aptamer (quencher-CACCTGGGGGAGTATTGCGGAGGAAGG + anchor), 100 nM annealed; ATP concentration: 500 uM; one replicate
In short: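 Values give the fluorescence ratio for each switch-domain sequence, averaged from per-cluster ratios of summed target-cycle to summed buffer-cycle Cy3 intensity. The Cy3-labelled switching-strand clusters sat on a modified Illumina MiSeq flow-cell, were annealed to 100 nM quencher-labelled ATP aptamer, and were imaged in selection buffer, then after 15 min with 500 uM ATP at 22 °C. Five cycles ran with NaOH stripping and re-annealing between them, and clusters outside 100-1000 RFU were excluded.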
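Note: ATP exposure 15 min at 22 °C before imaging.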

| Sequence | switch fluorescence ratio |
| --- | --- |
| CATTGGGATT | 0.979 |
| CGGCGTCTGT | 1.01 |
| CACCAGCCCT | 1.05 |
| CGAGCGACCT | 1.21 |
| CTACTTTACG | 1.26 |
| AAACTCACGG | 1.4 |
| AAACGTTAGT | 0.95 |
| CCGATACAAG | 2.82 |
| GTGACTAGT | 0.983 |
| AGCACGACCT | 1.49 |
| GGCCGGGTCT | 1.04 |
| ACTTTTAGCT | 1.03 |
| CCACTCTGGT | 1.05 |
| ATTCGGGACG | 0.977 |
| TGTATAGATA | 0.97 |
| TATCGCTACG | 0.974 |
| GAAGTTGGAT | 0.953 |
| ATAGTGTGTC | 0.923 |
| ATCCCTGGGG | 1.05 |
| CCGGGGTGCG | 1.08 |
| GTTATATGCG | 1.03 |
| CACGGCATTT | 1.16 |
| TCAACCGTT | 1.02 |
| AGGGTCCAGC | 0.976 |
| GGCATGTTCC | 1.09 |
| TGAGCCAGCA | 1.03 |

| Sequence | switch fluorescence ratio |
| --- | --- |
| GGGAGCGGGA | 1.02 |
| TTAATGTTT | 0.99 |
| GCAGGTGCCC | 1.29 |
| TATTTGCGTT | 0.972 |
| GCCTAGTGGC | 1.03 |
| ATACTTACCT | 1.32 |
| CGGTGAGCTT | 1.01 |
| GTCGGAAGGC | 1.39 |
| TTTCAGAGAT | 0.957 |
| ATGGTGATCT | 1.01 |
| AAAAATGCGT | 1.01 |
| AACGGTGT | 0.98 |
| ACACTCCGAC | 1.81 |
| GACAGGTCAC | 0.996 |
| GTTAGAATC | 0.996 |
| CGAAACCGT | 1.13 |
| ATGCGCACTA | 1.13 |
| GTCACGGTAT | 1.12 |
| TGTTATGGCG | 1.04 |
| AACGGGCTGT | 0.977 |
| GGGTTGGAGC | 1.02 |
| AATGCAGCTG | 1.02 |
| GCTGTTTTT | 0.991 |
| TCATATTGAG | 0.992 |
| AATTCGATAT | 0.986 |
| AAACATTAGG | 1.01 |

| Sequence | switch fluorescence ratio |
| --- | --- |
| AGAAGCGGGG | 0.991 |
| TCTTGGTTT | 1.04 |
| CCACAAATAA | 1.05 |
| GATGCCGCCA | 1.04 |
| GGGCGGGAAA | 1.03 |
| TCGCTGTGCT | 1.11 |
| CTGCTGCACT | 1.19 |
| CCGTTCTAGC | 1.18 |
| GTGTACGGCT | 1.09 |
| CACGTGGTGA | 1.04 |
| TCATGTTTGT | 1.01 |
| CTTTTCGGGC | 1 |
| GTCATGTTGA | 0.991 |
| ATGCGGAGTC | 1.03 |
| TTAGCCGATC | 1.08 |
| GCTGACGAGG | 1.07 |
| AATCGAAGGG | 1.01 |
| TACCCTCGC | 1.31 |
| CAAGGAAATT | 0.995 |
| GACCGGTGAA | 1.01 |
| AAGCGCCGTG | 1.05 |
| TGCACGCGTA | 1.01 |
| AGCCACTGGC | 1.12 |
| TGGCGGCACG | 0.998 |
| AGTTAAACCC | 1.06 |
| ATGCGTTAAC | 1.06 |

| Sequence | switch fluorescence ratio |
| --- | --- |
| CACAGTTGAT | 1.01 |
| TACGGTCGTC | 1.01 |
| GGCCACAGGC | 0.979 |
| GAGAGTCCTC | 1.01 |
| GCTTTTTCGA | 1.04 |
| CATAGTTGG | 0.934 |
| GGGGTCTGTG | 0.945 |
| ATGTCTCACC | 0.986 |
| TTGTGAGAAC | 1.03 |
| CGTAGAGATG | 1.03 |
| AGGCTTATG | 0.957 |
| TTGGCATATA | 1.05 |
| CTTCACGATC | 1.26 |
| ATTATCTCCT | 1.05 |
| GCAGGGAGCA | 1.03 |
| TAACCCGATG | 1.01 |
| AGATGCAGCG | 0.851 |
| CGAGGCACGA | 1.15 |
| ACGTTATACA | 1.29 |
| GACAATGGCC | 1.03 |
| GCATTCTAGC | 0.975 |
| AAATTTTGAC | 1.01 |
| CTTTGAACGA | 0.977 |
| CCTCGCTCGG | 2.15 |
| CCCATCCCGC | 1.51 |
| AAATCCCCGA | 0.946 |

| Sequence | switch fluorescence ratio |
| --- | --- |
| AGGAGGTCAA | 0.965 |
| GGGAGTCTG | 0.995 |
| GATTGCTCGG | 0.956 |
| TCATATAGTA | 1.03 |
| TACCAAATAT | 1.04 |
| ACGCATGTAC | 4.08 |
| TGGGGCCGGT | 0.94 |
| TAAGTAAGGT | 1.03 |
| CGCTGATGAT | 0.999 |
| CCCTGCGGTC | 2.62 |
| CAGTTATCTT | 0.969 |
| TATCGGCTAT | 1.02 |
| AATTAGCTTA | 0.971 |
| CTGGCGATTG | 1 |
| GTTTGCATGG | 0.988 |
| GAAAATTAGC | 0.984 |
| GTCGCGCGGA | 0.972 |
| AAACGCGACA | 1.2 |
| TGTTGCCCAG | 0.967 |
| ACAACCGCTG | 1.07 |
| TTTAGTCCAT | 0.984 |
| AACTAGTCCC | 1.05 |
| GCAAGGAAAC | 1.03 |
| GTTAAGTTCT | 1.39 |
| TCAATACGCT | 1.19 |
| GCAGGCCACG | 1.02 |

| Sequence | switch fluorescence ratio |
| --- | --- |
| CAGGCTAGCT | 1.01 |
| CATGAGTTCC | 0.983 |
| ACCGGGTCTT | 0.967 |
| AGGATCAGAA | 1.01 |
| ACTTGTTCTG | 0.996 |
| ATCGTTGTCA | 0.994 |
| CATAGTATTT | 1.02 |
| CACTTTATTC | 1.06 |
| AAGGGATAGC | 0.973 |
| GATTGGGGTC | 0.98 |
| CAGGATTTAA | 0.974 |
| TCAACTGAGG | 1.02 |
| CCATTGCGTA | 1.06 |
| GACCAGTATG | 0.967 |
| TGGTGTAGTT | 0.992 |
| CTGATGTTTC | 1.03 |
| TGAAAAGCTT | 0.98 |
| CGTAAGGCGC | 1.03 |
| AGTATGCCGT | 1.02 |
| AACTAGAAGG | 0.944 |
| TAATTAGCGA | 1.07 |
| GCAATTATTA | 1.06 |
| CGATGCCGG | 1.01 |
| AGAGGGAGCT | 0.969 |
| TACGTGCAAA | 1.09 |
| AAAATGAATG | 1.06 |

| Sequence | switch fluorescence ratio |
| --- | --- |
| GCGTGCTTGG | 1.01 |
| CGTTCCCTGT | 0.986 |
| GAACGGGGAG | 1.02 |
| TTTTGCGGA | 1.01 |
| TAGAGCGTAC | 1.13 |
| TTGTATACGG | 0.977 |
| GAAGTTCGA | 0.976 |
| CAGCGGCCG | 1.05 |
| CAGAGGCAGC | 1.09 |
| ATAGGGTAGG | 1 |
| TATACTACCT | 1.34 |
| GTGAGTGACT | 1.04 |
| CGATAGCGAC | 1.54 |
| ATTAATATGC | 1.07 |
| CGCTTGTCTG | 1.01 |
| ATGTGGGAGA | 1.01 |
| AACCGGTGGG | 0.966 |
| AGTCCTATAA | 0.966 |
| GAGGACCAGC | 1.04 |
| CGGTAGAC | 1.11 |
| TGCATAACGC | 1.03 |
| AGTATAGGAG | 0.991 |
| CACTTCGGCG | 1.08 |
| GTTATGTAGC | 1.05 |
| TACTCTGGTT | 0.978 |
| CAATTAGGGC | 1.03 |

| Sequence | switch fluorescence ratio |
| --- | --- |
| GCGGAAGCGA | 1.08 |
| GTTAGCAGCT | 1 |
| GAACGCGCGA | 0.975 |
| ACCAGATGGC | 1.03 |
| CCGAACTGGG | 1.04 |
| ATAACTTCAA | 1.02 |
| TCGACATGTT | 1 |
| TGTTGTAGAT | 1.03 |
| GTTTACACTT | 0.993 |
| TCTTCAGATT | 0.966 |
| TCGTCGTCTG | 1.07 |
| CGGGCGGATG | 1.05 |
| GAGTAGTCC | 0.943 |
| GTGTCCGTAT | 1.02 |
| TCTGGTCCCT | 1.01 |
| TCGGAAAGAA | 1.03 |
| GAAAGGGATA | 1.01 |
| TCCATGCTGC | 1.21 |
| TGTACCTGTG | 0.983 |
